Results as given in patent publication US20100047166A1, “ANTIBODIES AND RELATED MOLECULES THAT BIND TO 58P1D12 PROTEINS” (priority 2008, published 2010).

Target: T1, 58P1D12 protein (Homo sapiens, UniProt Q9H9P2)
T1 sequence (Q9H9P2 22-273): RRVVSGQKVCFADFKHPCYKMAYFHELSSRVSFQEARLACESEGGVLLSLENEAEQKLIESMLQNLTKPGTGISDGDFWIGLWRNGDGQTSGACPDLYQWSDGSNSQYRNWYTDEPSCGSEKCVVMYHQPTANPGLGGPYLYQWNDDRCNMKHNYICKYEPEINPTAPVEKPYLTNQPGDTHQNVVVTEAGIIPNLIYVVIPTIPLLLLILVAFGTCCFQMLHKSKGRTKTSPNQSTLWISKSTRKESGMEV
Assay: Binding of CHO-expressed recombinant antibody to 58P1D12 protein
Conditions: antibody secreted from CHO cells
Text: The 1-B3 and 2-A7 expression vectors were co-transfected with constant and heavy chain sequences to permit the assembly of recombinant monoclonal antibodies. […] The inability of the 2-A7 sequence to support the recombinant expression of monoclonal antibodies taken with the molecular weight data discussed above implies that the 2-A7 light chain is not processed to remove the leader sequence. If this hypothesis is correct, the 2-A7 light chain retaining the leader sequence might explain the lack of secretion of a properly assembled monoclonal antibody.

binding affinity to 58P1D12 protein relative to hybridoma-secreted monoclonal antibodies: same affinity
B1: recombinant antibody: recombinant monoclonal antibody secreted from CHO cells transfected with the sequence from clone 1-B3 and Ha8-4c4.1 VH (antibody, V domains shown)
VH: QVQLQESGPGLVKPSETLSLTCTVSGGSVSSGGYYWSWIRQPPGKGLEWIGYIYYSGGTNYNPSLKSRVTISVDTSKNQFSLKLTSVTAADTAVYYCARESGYCTNVACFPDAFDIWGQGTMVTVSS
VL: DIVMTQSPDSLAVSLGERATINCKSSQGVLYSSNNKNYLAWYQQKPGQPPKLLIYWASTRESGVPDRFSGSGSGTDFTLTISSLQAEDVAVYFCQQYYVSPLTFGGGTKVEIKR
